# Values joined by “and” are separate entries in the source; they are usually repeats but may differ in a detail not shown here. Equal values may be shown once. Screen size: about 420,000 compounds; about 64,000 (15%) were called active. Inconclusive means that the source gave no clear call. Such entries were picked first, then a sample of the others. The call rests on the fitted dose curve; in most records, active means well fitted inhibition curve with a large enough effect; inconclusive means small, poorly fitted or top-dose-only effect; inactive means flat fitted curve, though single readings scatter. Potencies of inconclusive entries are left out as doubtful fits. Where a structure was tested more than once in an assay, its records may differ in their call.
# Test: qHTS for Inhibitors of human tyrosyl-DNA phosphodiesterase 1 (TDP1): qHTS in cells in absence of CPT; further: nearly all actives have a fitted effect of over 55% in size
# Conditions: DT40 Tdp1-/- hTDP1 cells, no CPT, ATP luminescence, 48 h; activity change, negative = growth inhibition: at 46.2 µM (top of the series) unless noted
# How it was run: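 Growth of hTDP1-complemented DT40 Tdp1-knockout cells is measured by ATP luminescence after at least 48 hr compound exposure at 37 °C, with DMSO substituting for the 20 nM CPT used in the parallel screen.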
# On the % scale 0 is the no-effect control and ±100 the full control effect; potency means the concentration at half of the fitted maximal effect; tags describe the fitted curve by direction and shape.
SMILES,Potency,"activity change, negative = growth inhibition"
Cc1ccc(CN2CCN(Cc3ccccn3)CC2CCO)cc1 (configuration not stated),inactive,–
C=CCn1c(SCC(=O)c2ccccc2)nnc1-c1ccc2c(c1)OCO2,"inconclusive [inhibitor, partial curve, poor fit]",–
Nn1cnc2scc(-c3ccc(Cl)cc3)c2c1=O,inactive,–
Nc1c2c(nc3ccccc13)CCCC2,active: 13.3 µM and active: 18.4 µM,–
Cc1cc(C)cc(NC(=O)C2CCN(S(=O)(=O)c3cccc4nonc34)CC2)c1,inactive,–
Cc1ccc(/C=c2\sc3nc(-c4cccnc4)nn3c2=O)cc1,active: 29.1 µM,–
COc1ccc(CNC(=O)Nc2cn(CC(C)C)c(=O)c3ccccc23)c(OC)c1,"inconclusive [inhibitor, partial curve]",–
CC1Cc2ccccc2N1C(=O)CNc1cccc(S(=O)(=O)N2CCCC2)c1 (configuration not stated),active: 20.6 µM,–
CC1(c2nnc(Cc3ccccc3)o2)CC(c2ccc(Br)cc2)=NO1 (configuration not stated),"inconclusive [inhibitor, single point]",–
CCSc1ccccc1C(=O)N1CCN(c2ccccc2F)CC1,inactive,–
CCC(=O)N(Cc1ccco1)c1nc(-c2cc(OC)ccc2OC)cs1,"inconclusive [inhibitor, partial curve]",–
COc1ccc(N2C(=O)CC(N3CCN(S(=O)(=O)c4ccc(Cl)cc4)CC3)C2=O)cc1 (configuration not stated),inactive,–
Cc1ccc(-n2c([S-])c(C(=O)NC(C)c3ccccc3)[n+]3ccccc23)cc1 (configuration not stated),"inconclusive [inhibitor, single point]",–
O=C(O)/C=C/C(=O)c1ccc(O)cc1,inactive,–
CCOC(=O)c1cc2c(OC)ccc(OC)c2n1CC(=O)c1ccccc1,"inconclusive [inhibitor, single point]",–
CCCCn1nnc(N(C(=O)c2cccs2)C(=O)c2cccs2)n1,–,inconclusive: -35% [inhibitor]
Nc1nn(-c2ccccc2)c(N)c1N=Nc1ccccc1F,active: 13 µM,–
COc1ccc(C(=O)NCCCCCCNC(=O)c2ccc(OC)cc2)cc1,inactive,–
c1ccc(-c2cn(-c3ccccc3)c3ncnc(N4CCCCC4)c23)cc1,active: 18.4 µM,–
O=C(NCC1CCCO1)c1ccccc1-c1nc(-c2ccc(F)cc2)no1 (configuration not stated),"inconclusive [inhibitor, partial curve]",–
CC1CCC2(CC1)NC(=O)N(CC(=O)c1ccc[nH]1)C2=O (configuration not stated),inactive,–
CC1CCCN(C(=O)Cn2nnc(-c3ccc(S(C)(=O)=O)cc3)n2)C1 (configuration not stated),inactive,–
Cc1ccc2c(c1)c1c3n2CC(=C2C(=O)OC(C)(C)OC2=O)NC3CCC1 (configuration not stated),active: 20.6 µM,–
Cc1noc(-c2ccccc2OCC(=O)Nc2cccc([N+](=O)[O-])c2)n1,inactive,–

SMILES,Potency,"activity change, negative = growth inhibition"
COC(=O)Nc1ccc(S(=O)(=O)N2CCCC(C(=O)Nc3cccc4c3OCCO4)C2)cc1 (configuration not stated),"inconclusive [inhibitor, partial curve]",–
Cc1ccc(Nc2c([N+](=O)[O-])c(=O)n(C)c3ccccc23)cc1,"inconclusive [inhibitor, single point]",–
CN(C)S(=O)(=O)c1cc(NC(=O)c2cc(=O)c3ccccc3o2)ccc1Cl,"inconclusive [inhibitor, partial curve, poor fit]",–
C[C@@H](C(=O)NCCc1c[nH]c2ccccc12)[C@@H]1C[C@@]1(C)[C@@H](NC(=O)OCc1ccccc1)c1ccccc1,active: 18.4 µM,–
O=C(NNC(=O)c1ccccc1F)c1ccc(S(=O)(=O)N2CCCCC2)cc1,inactive,–
CCOC(=O)c1c(C2CC2)csc1NC(=O)COC(=O)c1ccc[n+]([O-])c1,"inconclusive [inhibitor, single point]",–
CC(=O)c1ccc(N2CCN(C(=O)NCc3noc4ccc(C)cc34)CC2)cc1,"inconclusive [inhibitor, single point]",–
CCOC(=O)c1ccc(NC(=O)CN2C(=O)NC3(CCCCCC3)C2=O)cc1,"inconclusive [inhibitor, single point]",–
COC(=O)CCc1sc(Nc2ccc(OC)cc2)nc1-c1ccc(OC)cc1,"inconclusive [inhibitor, single point]",–
Cc1cc(C)nc(NNC2=CC(=O)CC(C)(C)C2)n1,"inconclusive [inhibitor, single point]",–
COc1ccc(C2/C=C\CN(C(=O)OCc3ccccc3)CC(=O)N2Cc2ccc(F)cc2)cc1 (configuration not stated),"inconclusive [inhibitor, single point]",–
CC1CCCN(c2c3c(nc4ccccc24)CCCC3)C1 (configuration not stated),"inconclusive [inhibitor, single point]",–
CS(=O)(=O)N1CCc2cc(S(=O)(=O)N3CCN(Cc4ccc5c(c4)OCO5)CC3)ccc21,"inconclusive [inhibitor, single point]",–
CCOC(=O)[C@H]1[C@H]2COc3ccc(C)cc3[C@@H]2N2C(=O)c3ccc(C)cc3NC(=O)[C@@]12C,"inconclusive [inhibitor, partial curve, poor fit]",–
O=S1(=O)NC[C@]23C[C@H](c4ccc(F)cc4)[C@@H](C[C@@H]21)O3,inactive,–
COc1cc(/C=C(\C#N)c2[nH]nc(N)c2C#N)cc(OC)c1O,"inconclusive [inhibitor, partial curve, poor fit]",–
COc1cc(NC(=O)c2ccc(OC)c([N+](=O)[O-])c2)ccc1NC(=O)c1ccco1,–,inconclusive: -33.2% [inhibitor]
COc1ccc(CN(C(C)=O)c2ccccc2C(=O)O)cc1,inactive,–
Cc1oc(-c2cccc(NC(=O)C3CCCN(C)C3)c2)nc1CNC(=O)c1coc2c1C(=O)CCC2 (configuration not stated),active: 16.4 µM,–
COC(=O)c1sc(NC(=S)NC(=O)c2ccccc2F)nc1C,"inconclusive [inhibitor, partial curve]",–
O=C(COC(=O)c1ccc([N+](=O)[O-])o1)Nc1ccc2c(c1)OC(F)(F)O2,inactive,–
CN1CCN(c2nc3c(c(=O)[nH]c(=O)n3C)n2CCCSc2ncccn2)CC1,inactive,–
COc1ccnc(N2CCN(c3cccc(C(F)(F)F)c3)CC2)c1C#N,inactive,–
O=C1Cc2ccccc2C(=O)N1c1ccccc1,"inconclusive [inhibitor, full curve, poor fit]",–

SMILES,Potency,"activity change, negative = growth inhibition"
Clc1ccc(-c2csc(=Nc3cccnc3)n2CCCn2ccnc2)cc1Cl,active: 14.6 µM,–
Cc1ccc(S(=O)(=O)Nc2c(C)n(C)n(-c3ccccc3)c2=O)cc1C(=O)OC(C)C(=O)c1ccccc1 (configuration not stated),inactive,–
COC(=O)c1c(NC(=O)c2ccc(S(=O)(=O)N3CC(C)OC(C)C3)cc2)sc2c1CCN(C)C2 (configuration not stated),"inconclusive [inhibitor, single point]",–
CCc1ccc2[nH]c(=O)c(C(c3nnnn3Cc3ccco3)N3CCC(C)CC3)cc2c1 (configuration not stated),"inconclusive [inhibitor, single point]",–
Cc1cc(C(=O)Nc2ccccc2Cl)n(-c2ccccc2)n1,inactive,–
CNC(=S)N1CCC(n2cnc3ccccc32)CC1,inactive,–
NNC(=O)CNC(c1ccccc1)c1cc(Br)ccc1NC(=O)c1cccc(Cl)c1 (configuration not stated),"inconclusive [inhibitor, single point]",–
CC(=O)c1cc(C(=O)Nc2cccc(C)c2)c2ccccn12,"inconclusive [inhibitor, single point]",–
CC(=O)NC1(c2ccc(F)cc2)CCN(C(=O)c2c(F)cccc2F)CC1,inactive,–
Cc1ccc(C)c(N(C)C(=O)C2CCN(S(=O)(=O)c3cccc4nsnc34)CC2)c1,active: 13 µM,–
O=C(CCl)N1CCN(S(=O)(=O)c2ccc3ccccc3c2)CC1,active: 5.8 µM,–
CCOC(=O)c1ccccc1NC(=O)CSc1nc2ncccc2[nH]1,"inconclusive [inhibitor, single point]",–
O=C(NC1CC1)C1=C[C@H](c2ccc(Br)cc2)C[C@H](OCc2ccc(CO)cc2)O1,active: 14.6 µM,–
COCCn1c(C)cc(C(=O)COc2ncnc3ccc(Br)cc23)c1C,inactive,–
CCN1c2ccccc2-c2nc(SCC(=O)Nc3ccc(C)c(Cl)c3)ncc2S1(=O)=O,"inconclusive [inhibitor, single point]",–
CC(NC(=O)COc1ccccc1)C(=O)N1CCN(c2ccccc2)CC1 (configuration not stated),"inconclusive [inhibitor, partial curve]",–
CC(C)Oc1ccc(OCCn2c(=S)[nH]c3c(N)ncnc32)cc1,–,inconclusive: -30.9% [inhibitor]
CCCC(=O)N1CCCC1(C)C(=O)N(C)Cc1cccc2ccccc12 (configuration not stated),–,inconclusive: -31.6% [inhibitor]
CCOC(=O)C1(Cc2cccc(F)c2)CCN(Cc2cn(CC)nc2C)CC1,"inconclusive [inhibitor, single point]",–
COc1ccc(N2CCN(CC(O)COc3ccc(C(C)(C)C)cc3)CC2)cc1 (configuration not stated),"inconclusive [inhibitor, full curve]",–
CC(=O)OCCCNc1cc(Sc2ccc(Cl)cc2)c2nonc2c1[N+](=O)[O-],active: 3.66 µM,–
COC(=O)c1ccccc1COn1c(=O)c(C)[n+]([O-])c2ccccc21,"inconclusive [inhibitor, partial curve, poor fit]",–
O=C(c1ccc(C(F)(F)F)cc1)C1CCCN(C(=O)c2cnccn2)C1 (configuration not stated),"inconclusive [inhibitor, single point]",–
COC(=O)c1cc(C(=O)NCCN2C(=O)S/C(=C\c3cccs3)C2=O)cc([N+](=O)[O-])c1,"inconclusive [inhibitor, partial curve, poor fit]",–

# — PubChem BioAssay AID686978 (National Center for Advancing Translational Sciences (NCATS), 2013)
